Drawing on article PMC7765025, this text covers binding for eight molecules.

Protein sequences, listed by entry. Tags and fused reporters are not part of them.
UniProt Q62073: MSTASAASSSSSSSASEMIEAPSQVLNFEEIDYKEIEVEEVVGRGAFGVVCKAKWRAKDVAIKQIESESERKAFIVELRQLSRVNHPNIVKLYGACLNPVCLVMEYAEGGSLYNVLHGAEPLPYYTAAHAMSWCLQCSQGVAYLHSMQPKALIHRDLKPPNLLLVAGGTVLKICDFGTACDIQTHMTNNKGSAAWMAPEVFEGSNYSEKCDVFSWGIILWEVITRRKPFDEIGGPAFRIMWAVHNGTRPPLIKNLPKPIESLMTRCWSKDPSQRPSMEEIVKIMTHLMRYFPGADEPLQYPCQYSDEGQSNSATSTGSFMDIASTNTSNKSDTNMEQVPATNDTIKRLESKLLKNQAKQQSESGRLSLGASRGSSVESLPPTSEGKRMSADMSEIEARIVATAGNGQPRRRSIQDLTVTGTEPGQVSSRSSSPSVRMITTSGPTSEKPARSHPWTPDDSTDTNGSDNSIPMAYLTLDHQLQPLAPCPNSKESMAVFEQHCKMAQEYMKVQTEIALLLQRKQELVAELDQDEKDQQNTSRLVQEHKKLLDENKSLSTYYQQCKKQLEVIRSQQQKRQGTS

Experiment [1] addresses T1, GST-fused TAK1 (pEBG-TAK1) (human) (UniProt O43318).
T1 sequence: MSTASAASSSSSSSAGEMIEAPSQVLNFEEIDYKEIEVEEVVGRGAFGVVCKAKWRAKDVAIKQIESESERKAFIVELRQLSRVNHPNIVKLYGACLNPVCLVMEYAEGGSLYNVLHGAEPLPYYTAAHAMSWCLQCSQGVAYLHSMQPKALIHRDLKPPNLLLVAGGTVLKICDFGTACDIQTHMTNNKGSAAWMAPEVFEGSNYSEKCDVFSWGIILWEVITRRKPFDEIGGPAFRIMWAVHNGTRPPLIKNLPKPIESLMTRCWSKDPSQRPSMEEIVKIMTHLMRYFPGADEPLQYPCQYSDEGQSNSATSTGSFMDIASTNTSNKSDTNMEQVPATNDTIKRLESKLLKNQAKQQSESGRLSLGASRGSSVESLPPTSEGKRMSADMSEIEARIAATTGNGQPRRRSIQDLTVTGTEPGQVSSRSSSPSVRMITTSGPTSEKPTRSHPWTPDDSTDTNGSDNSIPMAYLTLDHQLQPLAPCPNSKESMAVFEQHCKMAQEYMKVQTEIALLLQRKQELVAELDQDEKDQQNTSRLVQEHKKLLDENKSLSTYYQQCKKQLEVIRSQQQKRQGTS
Nature of the experiment: pull-down; GST pull-down from lysates (RIPA buffer) of transiently cotransfected HEK 293 cells; glutathione Sepharose 4B, 3 h at 4 °C, washed four times; blots with α-FLAG and α-GST.

For experiment [2], the target named is T1, GST-fused TAK1 (pEBG-TAK1) (human). The experiment can be described thus: pull-down; GST pull-down from HEK 293 cells cotransfected with TAK1, TAB1, TAB2 or TAB3 and with or without TXNIP (Figure 3F, Figure S3C,D).
Experiment [3] has as its target T2, endogenous TAK1 of primary mouse NK cells (mouse (endogenous in splenic NK cells)) (UniProt Q62073).
T2 sequence: T1 sequence with G16S, A400V, T403A, T449A
Nature of the experiment: proximity ligation; in situ PLA (Duolink) in fixed, permeabilised freshly isolated mouse splenic NK cells, rabbit anti-TAK1 with mouse anti-TXNIP or mouse anti-TAB1; with or without Pam3CSK4; WT and Txnip-/- cells for TAK1-TAB1.

Changes are numbered by the printed parent chain. No constants are given. Whether binding was seen depends on the method and setting. Binding seen in cells or lysates may run through a third protein. Some entries that bind do so weakly or less than the wild type. For some assays here: Tags and fused reporters may be left off the sequences shown.

B1: FLAG-tagged TXNIP (150C) (domain or fragment, UniProt Q9H3M7 150-391)
chain: DVNTPDLMAPVSAKKEKKVSCMFIPDGRVSVSARIDRKGFCEGDEISIHADFENTCSRIVVPKAAIVARHTYLANGQTKVLTQKLSSVRGNHIISGTCASWRGKSLRVQKIRPSILGCNILRVEYSLLIYVSVPGSKKVILDLPLVIGSRSGLSSRTSSMASRTSSEMSWVDLNIPDTPEAPPCYMDVIPEDHRLESPTTPLLDDMDGSQDSPIFMYAPEFKFMPPPTYTEVDPCILNNNVQ
Take B1: the binding result in experiment [1] is “no binding”.

B2: HA-TXNIP (pHA-TXNIP) (protein, UniProt Q9H3M7 1-391)
chain: MVMFKKIKSFEVVFNDPEKVYGSGEKVAGRVIVEVCEVTRVKAVRILACGVAKVLWMQGSQQCKQTSEYLRYEDTLLLEDQPTGENEMVIMRPGNKYEYKFGFELPQGPLGTSFKGKYGCVDYWVKAFLDRPSQPTQETKKNFEVVDLVDVNTPDLMAPVSAKKEKKVSCMFIPDGRVSVSARIDRKGFCEGDEISIHADFENTCSRIVVPKAAIVARHTYLANGQTKVLTQKLSSVRGNHIISGTCASWRGKSLRVQKIRPSILGCNILRVEYSLLIYVSVPGSKKVILDLPLVIGSRSGLSSRTSSMASRTSSEMSWVDLNIPDTPEAPPCYMDVIPEDHRLESPTTPLLDDMDGSQDSPIFMYAPEFKFMPPPTYTEVDPCILNNNVQ
Turning to B2, the binding entry in experiment [2] is listed as “binds”.

B3: endogenous TXNIP of primary mouse NK cells (protein, UniProt Q8BG60 1-397)
chain: MVMFKKIKSFEVVFNDPEKVYGSGEKVAGRVIVEVCEVTRVKAVRILACGVAKVLWMQGSQQCKQTLDYLRYEDTLLLEEQPTAGENEMVIMRPGNKYEYKFGFELPQGPLGTSFKGKYGCVDYWVKAFLDRPSQPTQEAKKNFEVMDLVDVNTPDLMAPVSAKKEKKVSCMFIPDGRVSVSARIDRKGFCEGDDISIHADFENTCSRIVVPKAAIVARHTYLANGQTKVFTQKLSSVRGNHIISGTCASWRGKSLRVQKIRPSILGCNILKVEYSLLIYVSVPGSKKVILDLPLVIGSRSGLSSRTSSMASRTSSEMSWIDLNIPDTPEAPPCYMDIIPEDHRLESPTTPLLDDVDDSQDSPIFMYAPEFQFMPPPTYTEVDPCVLNNNNNNNNVQ
B3: the binding entry in experiment [3] was “binds”.

B4: FLAG-tagged TXNIP (1–149) (domain or fragment, UniProt Q9H3M7 1-149)
chain: MVMFKKIKSFEVVFNDPEKVYGSGEKVAGRVIVEVCEVTRVKAVRILACGVAKVLWMQGSQQCKQTSEYLRYEDTLLLEDQPTGENEMVIMRPGNKYEYKFGFELPQGPLGTSFKGKYGCVDYWVKAFLDRPSQPTQETKKNFEVVDLV
In the case of B4, in experiment [1], the binding result is “binds”.

B5: FLAG-TAB1 (protein, UniProt Q15750 1-504)
chain: MAAQRRSLLQSEQQPSWTDDLPLCHLSGVGSASNRSYSADGKGTESHPPEDSWLKFRSENNCFLYGVFNGYDGNRVTNFVAQRLSAELLLGQLNAEHAEADVRRVLLQAFDVVERSFLESIDDALAEKASLQSQLPEGVPQHQLPPQYQKILERLKTLEREISGGAMAVVAVLLNNKLYVANVGTNRALLCKSTVDGLQVTQLNVDHTTENEDELFRLSQLGLDAGKIKQVGIICGQESTRRIGDYKVKYGYTDIDLLSAAKSKPIIAEPEIHGAQPLDGVTGFLVLMSEGLYKALEAAHGPGQANQEIAAMIDTEFAKQTSLDAVAQAVVDRVKRIHSDTFASGGERARFCPRHEDMTLLVRNFGYPLGEMSQPTPSPAPAAGGRVYPVSVPYSSAQSTSKTSVTLSLVMPSQGQMVNGAHSASTLDEATPTLTNQSPTLTLQSTNTHTQSSSSSSDGGLFRSRPAHSLPPGEDGRVEPYVDFAEFYRLWSVDHGEQSVVTAP
With B5, in experiment [2], the binding result is “binds”.

B6: endogenous TAB1 of primary mouse NK cells (protein, UniProt Q8CF89 1-502)
chain: MAAQRRSLLQSEQQPSWTDDLPLCHLSGVGSASNRSYSADGKGTESHPPEDNWLKFRSENNCFLYGVFNGYDGNRVTNFVAQRLSAELLLGQLNTEHTEADVRRVLLQAFDVVERSFLESIDDALAEKASLQSQLPEGVPQHQLPPQYQKILERLKALEREISGGAMAVVAVLLNSKLYVANVGTNRALLCKSTVDGLQVTQLNMDHTTENEDELFRLSQLGLDAGKIKQMGVICGQESTRRIGDYKVKYGYTDIDLLSAAKSKPIIAEPEIHGAQPLDGVTGFLVLMSEGLYKALEAAHGPGQANQEIAAMIDTEFAKQTSLDAVAQAVVDRVKRIHSDTFASGGERAKFCPRHEDMTLLVRNFGYPLGEMSQPTPTPAPGGRVYPVSVPYSSAQSTSKTSVTLSLVMPSQGQMVNGSHSASTLDEATPTLTNQSPTLTLQSTNTHTQSSSSSSDGGLFRSRPAHSLPPGEDGRVEPYVDFAEFYRLWSVDHGEQSVMTAP
For the molecule B6, the binding result in experiment [3] is given as “binds”.

B7: FLAG-TAB2 (protein, UniProt Q9NYJ8 1-693)
chain: MAQGSHQIDFQVLHDLRQKFPEVPEVVVSRCMLQNNNNLDACCAVLSQESTRYLYGEGDLNFSDDSGISGLRNHMTSLNLDLQSQNIYHHGREGSRMNGSRTLTHSISDGQLQGGQSNSELFQQEPQTAPAQVPQGFNVFGMSSSSGASNSAPHLGFHLGSKGTSSLSQQTPRFNPIMVTLAPNIQTGRNTPTSLHIHGVPPPVLNSPQGNSIYIRPYITTPGGTTRQTQQHSGWVSQFNPMNPQQVYQPSQPGPWTTCPASNPLSHTSSQQPNQQGHQTSHVYMPISSPTTSQPPTIHSSGSSQSSAHSQYNIQNISTGPRKNQIEIKLEPPQRNNSSKLRSSGPRTSSTSSSVNSQTLNRNQPTVYIAASPPNTDELMSRSQPKVYISANAATGDEQVMRNQPTLFISTNSGASAASRNMSGQVSMGPAFIHHHPPKSRAIGNNSATSPRVVVTQPNTKYTFKITVSPNKPPAVSPGVVSPTFELTNLLNHPDHYVETENIQHLTDPTLAHVDRISETRKLSMGSDDAAYTQALLVHQKARMERLQRELEIQKKKLDKLKSEVNEMENNLTRRRLKRSNSISQIPSLEEMQQLRSCNRQLQIDIDCLTKEIDLFQARGPHFNPSAIHNFYDNIGFVGPVPPKPKDQRSIIKTPKTQDTEDDEGAQWNCTACTFLNHPALIRCEQCEMPRHF
As to B7, the binding entry in experiment [2] is given as “binds”.

B8: FLAG-tagged TAB3 (Full) (protein, UniProt Q8N5C8 1-712)
chain: MAQSSPQLDIQVLHDLRQRFPEIPEGVVSQCMLQNNNNLEACCRALSQESSKYLYMEYHSPDDNRMNRNRLLHINLGIHSPSSYHPGDGAQLNGGRTLVHSSSDGHIDPQHAAGKQLICLVQEPHSAPAVVAATPNYNPFFMNEQNRSAATPPSQPPQQPSSMQTGMNPSAMQGPSPPPPPPSYMHIPRYSTNPITVTVSQNLPSGQTVPRALQILPQIPSNLYGSPGSIYIRQTSQSSSGRQTPQSTPWQSSPQGPVPHYSQRPLPVYPHQQNYQPSQYSPKQQQIPQSAYHSPPPSQCPSPFSSPQHQVQPSQLGHIFMPPSPSTTPPHPYQQGPPSYQKQGSHSVAYLPYTASSLSKGSMKKIEITVEPSQRPGTAINRSPSPISNQPSPRNQHSLYTATTPPSSSPSRGISSQPKPPFSVNPVYITYTQPTGPSCTPSPSPRVIPNPTTVFKITVGRATTENLLNLVDQEERSAAPEPIQPISVIPGSGGEKGSHKYQRSSSSGSDDYAYTQALLLHQRARMERLAKQLKLEKEELERLKSEVNGMEHDLMQRRLRRVSCTTAIPTPEEMTRLRSMNRQLQINVDCTLKEVDLLQSRGNFDPKAMNNFYDNIEPGPVVPPKPSKKDSSDPCTIERKARRISVTSKVQADIHDTQAAAADEHRTGSTQSPRTQPRDEDYEGAPWNCDSCTFLNHPALNRCEQCEMPRYT
As for B8, the binding entry in experiment [2] is reported as “binds”.
